Data taken from PubChem BioAssay AID1347417 (National Center for Advancing Translational Sciences (NCATS), 2020).
Hit rate of the full screen: of about 120,000 compounds, about 5,300 (4.4%) were called active. Inconclusive results, whose numbers are uncertain, are shown with a selection of clear calls. Calls follow the shape of the dose curve; as a rule, active = well fitted inhibition curve with a large enough effect; inconclusive = small, poorly fitted or top-dose-only effect; inactive = no such curve, though single readings can be large or run the other way. A potency beside an inconclusive call is a rough fit, not a confirmed value.

Assay: qHTS Primary assay for Inhibitors of Plasmodium falciparum Dd2 growth in vitro; also: nearly all actives have a fitted effect of over 65% in size;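 as to activity, negative = inhibition: plate controls were DMSO vehicle for no effect and reference drug for full effect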
Conditions: P. falciparum Dd2 growth, SYBR Green, 72 h; activity, negative = inhibition: at 28.9 µM (top of the series) unless noted; series mostly up to 28.9 µM
Outline: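 Readout: SYBR Green fluorescence, 485 nm excitation, 535 nm emission, after ~16 h lysis at 37C. Before that, Dd2-infected red cells (2.5% hematocrit) grew 72 h with compound, 29 uM top final concentration.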
Potency is read from the fitted curve at half-maximal effect; tags tell the direction and shape of the fitted curve.

With `COCCCNC(=O)c1ccc2c(c1)N(Cc1ccccc1F)C(=O)c1ccccc1S2=O` (centres undefined) as the molecule, how does the “outcome” value read?
Its value is “inactive”.

Which outcome does the source give for `COc1cccc(C(=O)N2CC[C@](O)(c3ccccc3)[C@H](N(C)C)C2)c1` here?
Its outcome is “inactive [at 5.79 µM]”.

For `CCOc1ccc(N2C(=O)c3[nH]nc(-c4ccc(OC)cc4)c3C2c2cccs2)cc1` (centres undefined), which Potency is on record?
Its Potency is inconclusive: 8.91 µM [inhibitor, partial curve, poor fit].

For `Cc1ccc(C)c(Nc2nnc(-c3ccc(C)c(S(=O)(=O)NCC4CCCO4)c3)c3ccccc23)c1` (centres undefined), which Potency is on record?
Its Potency is inconclusive: 14.1 µM [inhibitor, single point].

With `O=C(Cn1c(=O)n(Cc2nc(-c3ccccc3)no2)c(=O)c2ccccc21)Nc1cccc(Cl)c1` as the molecule, how does the Potency read?
The Potency was inconclusive: 17.8 µM [inhibitor, single point].

With `COc1ccc(-c2c(C)c3ccc(O)c(CN4CCCC(C)C4)c3oc2=O)cc1OC` (centres undefined) as the molecule, how does the Potency read?
The Potency was active: 11.2 µM.

With `COc1ccc(-c2[nH]nc3ncc(C(=O)NCC4CCOCC4)nc23)c(C)c1` as the molecule, how does the Potency read?
Its Potency is inconclusive: 31.6 µM [inhibitor, single point].

With `O=C1Nc2ccccc2CC12CCN(Cc1ccncc1)CC2` as the molecule, how does the “outcome” value read?
Its value is “inactive”.

For `Oc1ccccc1Nc1nc2ccccc2n2nnnc12`, which Potency is on record?
The Potency was inconclusive: 1 µM [inhibitor, single point].

Which Potency does the source give for `CC1(C)[C@H]2CC[C@@H](CNC(=O)c3ccccc3Cl)[C@@H]1C2` here?
Its Potency is inconclusive: 14.1 µM [inhibitor, single point].

For `CCN(CC)C(=O)C[C@@H]1c2nc(NC(=O)c3ccco3)sc2C[C@@H]2[C@](C)(CO)[C@H](O)CC[C@]21C`, which Potency is on record?
Its Potency is inconclusive: 12.6 µM [inhibitor, single point].

With `COC(=O)[C@]1(C)N[C@H](c2cc(F)c(OC)c(Cl)c2)[C@@H]2C(=O)N(C)C(=O)[C@@H]21` as the molecule, how does the “activity, negative = inhibition” value read?
The value was inactive: 8.67%.

Which “activity, negative = inhibition” value does the source give for `CC(C)CCN1CCC2(CC1)C(=NC1CCCC1)NC(=O)N2c1cc(F)cc(F)c1` here?
Its value is inactive: -27.7%.

For `CCCC(=O)N1Cc2ccccc2CC2(CCN(Cc3cccnc3)C2)C1` (centres undefined), which Potency is on record?
The Potency was active: 11.2 µM.

With `O=C(c1n[nH]c(=O)c2ccccc12)N1CCCC1c1nc(CCOCC2CC2)no1` (centres undefined) as the molecule, how does the “activity, negative = inhibition” value read?
Its value is inactive: -17.9%.

For `O=C(NCCCN1CCCC1=O)c1ccc2c(c1)[nH]c(=O)n2C1CCC(O)CC1` (centres undefined), which “activity, negative = inhibition” value is on record?
Its value is inactive: 15.8%.

For `Cc1nc(-c2ccccc2OC2CN(S(=O)(=O)Cc3ccccc3)C2)no1`, which Potency is on record?
Its Potency is inconclusive: 7.94 µM [inhibitor, single point].

For `Cn1cccc1CN1CC[C@H]2C(=O)NCCCCCCN(Cc3ccncc3)[C@@H]2C1`, which Potency is on record?
The Potency was inconclusive: 2.51 µM [inhibitor, full curve, poor fit].

For `Cc1cn2nc(-c3nc(C4CCCN(C(=O)c5ccccc5F)C4)no3)cc2c(=O)[nH]1` (centres undefined), which Potency is on record?
Its Potency is inconclusive: 3.98 µM [inhibitor, single point].

Which “outcome” value does the source give for `O=C(NCc1cc(F)ccc1F)C1CCc2sc(C(=O)N3CCOCC3)cc2C1` (centres undefined) here?
Its value is “inactive”.

Which “outcome” value does the source give for `COc1cccc(C(=O)N2CCC3(CC2)CC(N(C2CC2)S(C)(=O)=O)CCO3)c1` (centres undefined) here?
Its value is “inactive”.

With `CN(C)C(=O)N1CCC2(CC1)CC(=O)N(c1ccccc1)c1ccccc1O2` as the molecule, how does the “activity, negative = inhibition” value read?
Its value is inactive: -6.91%.

Which Potency does the source give for `CCc1noc(-c2cn(C3CCCN(C(=O)COc4ccccc4)C3)nn2)n1` (centres undefined) here?
Its Potency is inconclusive: 5.01 µM [inhibitor, partial curve, poor fit].

For `Cc1cccc(NC(=O)CN2C(=O)C(c3ccccc3)=NC23CCC(C)CC3)c1` (centres undefined), which Potency is on record?
The Potency was inconclusive: 17.8 µM [inhibitor, single point].

For `CC(=O)c1cccc(-n2c(=O)c3c4c(sc3n(Cc3cccc(C)c3)c2=O)CN(C(C)=O)CC4)c1`, which “activity, negative = inhibition” value is on record?
Its value is inactive: -24.3%.

Which Potency does the source give for `Cc1cc(C)n(CCc2nc3c4ccccc4nc(N4CCN(c5cccc(C)c5C)CC4)n3n2)n1` here?
Its Potency is inconclusive: 10 µM [inhibitor, single point].

With `O=C(c1ccoc1)N1CCC(N2CC3CC(C2)[C@H]2CCCC(=O)N2C3)CC1` (some centres undefined) as the molecule, how does the “activity, negative = inhibition” value read?
The value was inactive: -7.89%.

For `O=C1NCc2ccccc2CC12CCCN(Cc1ccc(Cl)cc1)C2` (centres undefined), which Potency is on record?
Its Potency is inconclusive: 0.562 µM [inhibitor, full curve, poor fit].

For `Cc1noc(C2CC3(CCN(C(=O)CCCc4c[nH]c5ccccc45)CC3)CN2C)n1` (centres undefined), which Potency is on record?
The Potency was inconclusive: 3.98 µM [inhibitor, partial curve, poor fit].

Which Potency does the source give for `COCC1CN(Cc2ccc(Br)s2)CC12CCNCC2` (centres undefined) here?
The Potency was inconclusive: 1.26 µM [inhibitor, full curve, poor fit].

Which “outcome” value does the source give for `O=S(=O)(NCCS(=O)(=O)N1CCN(c2cccc(Cl)c2)CC1)c1ccc(F)cc1` here?
The value was “inactive”.

With `COc1ccc(C(=O)N2CCC(c3nn(-c4ccc(Cl)cc4)c(=O)[nH]3)CC2)cc1` as the molecule, how does the “activity, negative = inhibition” value read?
The value was inactive: -13.6%.

Which Potency does the source give for `CCn1cc2nc(SCC(=O)Nc3ccc(C)cc3)n(Cc3ccc(C)cc3)c(=O)c2n1` here?
The Potency was inconclusive: 10 µM [inhibitor, single point].

With `CC(C)c1noc(-c2ccn3c(CNC(=O)c4ccc(N(C)C)cc4)nnc3c2)n1` as the molecule, how does the Potency read?
The Potency was inconclusive: 6.31 µM [inhibitor, partial curve].

For `O=C(c1ccn[nH]1)N1CCC(c2nc(CCOc3ccc(F)cc3)no2)C1` (centres undefined), which Potency is on record?
The Potency was inconclusive: 17.8 µM [inhibitor, single point].

Which “activity, negative = inhibition” value does the source give for `COc1ccc2c(c1)CCc1sc(NC(=O)c3cccc(Br)c3)nc1-2` here?
The value was inactive: -16.3%.

Which “outcome” value does the source give for `CN(Cc1ccc(F)cc1)C(=O)c1ccccc1F` here?
The value was “inactive [at 44.1 µM]”.

With `Cc1ccc(NC(=O)c2oc3ccccc3c2NC(=O)Cc2ccccc2)cc1` as the molecule, how does the Potency read?
The Potency was inconclusive: 17.8 µM [inhibitor, single point].

With `O=C(Cc1ccccn1)N1CCC(N2CCCCCC2=O)CC1` as the molecule, how does the “activity, negative = inhibition” value read?
Its value is inactive: -10.6% [at 44.1 µM].

For `CCOc1ccc(CNC(=O)C2CCN(c3nnc(-n4c(C)ccc4C)s3)CC2)cc1`, which Potency is on record?
Its Potency is inconclusive: 11.2 µM [inhibitor, partial curve, poor fit].

For `COCCO[C@H]1C(=O)N(C2CCN(C(=O)c3cccn3C)CC2)[C@H]1c1ccncc1`, which “activity, negative = inhibition” value is on record?
The value was inactive: -8.74%.

Which “outcome” value does the source give for `COc1ccc(-c2[nH]nc3ncc(-c4ccccc4F)nc23)c(C)c1` here?
Its value is “inactive [at 44.1 µM]”.

For `Cn1ncc2c(C(=O)N3CCOCC3)cc(-c3ccc(Cl)nc3)nc21`, which “activity, negative = inhibition” value is on record?
The value was inactive: -4.96%.

Which Potency does the source give for `Cc1cccc(NC(=O)N2CCc3nnc(C4CC4)n3CC2)c1` here?
The Potency was inconclusive: 3.98 µM [inhibitor, partial curve, poor fit].
